# Source: the supplement of paper PMC5499739
# In all, about 16,000 sequences were measured (“Z-score”: median about -0.37, highest 2% from about 3.2 on). The list shows a part of the results.
# Tested on: RBM10 RRM1-ZnF (GST-tagged construct)
# Assay: RNAcompete 7-mer binding Z-score; higher = stronger binding preference
# Procedure, shortened: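 A designed pool of 241 399 RNAs, each up to 41 nt and transcribed from microarray-derived DNA templates, was used at 1.5 nmol with 20 pmol of GST-tagged RBM10 constructs. The mixture, in 1 ml Hepes pH 7.8 buffer with KCl, NaCl, glycerol, DTT, BSA and glutathione Sepharose beads, was held 30 min at 4°C and then washed four times for 2 min at 4°C. Bound RNA was read out by microarray hybridisation, and enrichment of each heptamer motif was scored as a one-sided Z-score over the probes carrying it.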
row,Sequence,RNAcompete 7-mer binding Z-score
1,GUACCAC,-0.301
2,CUACCAU,-0.691
3,UGAUAGU,-0.0772
4,GUGGGCU,2.33
5,UCUAGGU,-0.126
6,UUCCCCG,-0.337
7,AUGUAAC,-0.227
8,ACAUUAA,-0.487
9,UGAGACU,-0.288
10,CGCGUUU,-0.886
11,GAUUGUA,0.095
12,GUACAGA,0.186
13,CACAAGC,-0.548
14,AGGCAUA,0.0398
15,AAACUUG,-0.629
16,AAGCUCG,-0.126
17,AGGACGC,-0.022
18,AACUGUA,-0.662
19,CUUUCGC,-0.964
20,UGUCGGA,0.277
21,GUCUGUC,-0.496
22,ACGGCCA,-0.48
23,UGGAAAC,1.19

row,Sequence,RNAcompete 7-mer binding Z-score
1,CAAGGGA,2.42
2,CCCUUUA,-0.928
3,CUCUAUU,-0.828
4,AGUACGG,1.36
5,AUCUGUC,-0.785
6,UGUUCCC,-0.565
7,CUAGGCA,-0.334
8,AUUCAGU,-0.49
9,GAGUUCU,-0.506
10,AAAGCAG,0.371
11,CCAUGAG,-0.383
12,CCGUUUA,-0.919
13,GACAGGC,0.716
14,GUAAAUU,-0.0674
15,AUAGACA,-0.103
16,UCACCCU,-0.613
17,GAGCUUA,-0.37
18,AUGGUAC,0.872
19,UUAGAGU,0.225
20,UCGCGGC,-0.204
21,AAAUCGG,0.355
22,GCACCAG,-0.223
23,ACAACAU,-0.357

row,Sequence,RNAcompete 7-mer binding Z-score
1,CCAUAGU,-0.772
2,CUAAAUU,-0.649
3,UGAUUAU,-0.321
4,UUUUUGG,0.433
5,GAAGGCC,0.118
6,CAAUGGC,-0.158
7,AGACUCC,-0.753
8,CUAUAGC,-0.659
9,AGCCGAC,-0.425
10,AUGGAGG,4.22
11,UCAUGGC,-0.314
12,GCUAUCA,-0.412
13,GGGAGUG,3.73
14,GCUAAGC,-0.526
15,CAUUCAA,-0.62
16,GAAGUAU,0.173
17,AGCGUUA,-0.0934
18,ACAAGAU,-0.441
19,CCGCAAU,-0.727
20,UAAGUUG,0.329
21,AGACAGC,-0.545
22,ACUCAUA,-0.854
23,AGGACAU,0.43

row,Sequence,RNAcompete 7-mer binding Z-score
1,UCGUCGU,-0.314
2,GGCCUAG,-0.266
3,CAAUCCC,-0.623
4,GUACUGG,0.547
5,ACUGGAA,0.813
6,GGGAACC,1.62
7,ACCGGGA,1.19
8,UGAGAGU,0.43
9,CAGAUCG,-0.188
10,ACGUCGG,0.0398
11,ACGCCGU,-0.47
12,GUAGAGG,3.56
13,GUCAUCA,-0.6
14,GCCAUAA,-0.756
15,GGGAUCU,0.816
16,ACUACCG,-0.649
17,GUUGCAA,-0.0382
18,GGAAUCC,0.0333
19,AAAGGCU,0.807
20,GCGUAGG,1.78
21,AUUCCCG,-0.912
22,AUGCAGA,0.16
23,CCAGGUA,0.348

row,Sequence,RNAcompete 7-mer binding Z-score
1,AGCUAUA,-0.35
2,AGACGGC,-0.35
3,UUAUUUC,-0.737
4,CUUACCA,-0.704
5,GGUACGA,1.06
6,CCGCAAA,-0.733
7,GGACCCC,-0.0252
8,GCAGUCU,-0.539
9,AUUUCGC,-0.919
10,GGCAAGA,0.852
11,ACCGCGA,-0.694
12,UUCCAAU,-0.792
13,UCAAAGC,-0.552
14,GAUCAGC,-0.155
15,UUACAGC,-0.61
16,CGGGCUU,0.677
17,AAGGCAC,0.927
18,GGCGGUG,1.94
19,GAUAACG,0.186
20,UACUCGU,-0.61
21,AAUCUGU,-0.789
22,UAUCUCC,-0.837
23,ACGAGAA,0.163

row,Sequence,RNAcompete 7-mer binding Z-score
1,ACCCCGG,-0.119
2,AAGGAAA,3.36
3,GAGGGAU,3.16
4,CAAGGAC,0.543
5,UGUCCCG,-0.496
6,CCUCAGU,-0.743
7,GUUCGCG,-0.262
8,AUUCUGG,-0.295
9,UCCGGGC,-0.168
10,ACGCUCA,-0.591
11,GUGUAGG,2.81
12,AUUACGA,-0.392
13,UGGUCCG,-0.0934
14,AAGGAGU,3.09
15,GUUUACU,-0.503
16,GGUACAU,0.787
17,GAACUGC,-0.396
18,AACGAUA,-0.327
19,GCUGCUG,-0.00571
20,UGCCGAU,-0.668
21,CUCGUUG,-0.493
22,UGUAAUA,-0.331
23,AGUCGAA,-0.0934

row,Sequence,RNAcompete 7-mer binding Z-score
1,AUUGCAG,0.03
2,GCGCCGG,-0.149
3,GGUUUCU,0.192
4,AUCAGCU,-0.672
5,AGUGUUU,0.241
6,CAAACUC,-0.792
7,AAACAAG,0.199
8,CCCGUGA,-0.409
9,CGAUCCA,-0.789
10,CGCCGUA,-0.558
11,AGUAGAG,1.38
12,UACGCUA,-0.412
13,GAGGCAC,0.628
14,UCUGCAG,-0.629
15,CAGUUCG,-0.626
16,AAUGUCA,-0.295
17,AGAAAAG,1.05
18,GCAGACG,0.657
19,CUCCCCA,-0.435
20,AAGUCAC,-0.47
21,GGAAUAU,1.16
22,GGUGUUC,0.534
23,UCGCAGC,-0.386

row,Sequence,RNAcompete 7-mer binding Z-score
1,ACCGCCC,-0.701
2,AGCAGCU,-0.457
3,ACUGAUU,-0.428
4,GUAUGCA,0.472
5,GCAAGUU,-0.116
6,GAAGUGG,3.46
7,UCAGUUA,-0.464
8,AUGCGGU,0.933
9,GCAUAAA,-0.376
10,UCCGAAU,-0.821
11,CGGUUCA,-0.383
12,UCUGGAC,-0.487
13,AGAUAAA,0.0463
14,GUUAGGA,2.13
15,GGUUGGC,2.12
16,CAGGAUA,1.22
17,AGAAUGC,-0.292
18,GCAACCA,-0.266
19,GGCAUGC,0.173
20,GCCAUGA,-0.451
21,AUACUAU,-0.655
22,GGAAGGC,2.63
23,CUAGAGA,-0.139
